# Experimental data as given in PubChem BioAssay AID686978 (National Center for Advancing Translational Sciences (NCATS), 2013).
# Screen size: about 420,000 compounds; about 64,000 (15%) were called active. Inconclusive results, whose numbers are uncertain, are shown with a selection of clear calls. Calls come from the whole dose curve; as a rule, active = well fitted inhibition curve with a large enough effect; inconclusive = small, poorly fitted or top-dose-only effect; inactive = flat fitted curve, though single readings scatter. Potencies of inconclusive entries are left out as doubtful fits.
# Test: qHTS for Inhibitors of human tyrosyl-DNA phosphodiesterase 1 (TDP1): qHTS in cells in absence of CPT; note: nearly all actives have a fitted effect of over 55% in size
# Conditions: DT40 Tdp1-/- hTDP1 cells, no CPT, ATP luminescence, 48 h; activity change, negative = growth inhibition: at 46.2 µM (top of the series)
# In short: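 Growth of hTDP1-complemented DT40 Tdp1-knockout cells is measured by ATP luminescence after at least 48 hr compound exposure at 37 °C, with DMSO substituting for the 20 nM CPT used in the parallel screen.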
# % is set by controls: 0 for no effect and ±100 for the full control effect; potency is the fitted concentration of half-maximal effect; tags give direction and shape of the fitted curve.
SMILES,Potency,"activity change, negative = growth inhibition"
CC(=O)c1ccc(NC(=O)C2CCCN2S(=O)(=O)c2ccc(C)cc2)cc1 (configuration not stated),"inconclusive [inhibitor, partial curve]",
CN1C[C@@H]2[C@@H]3C(=O)N(C)C(=O)[C@@H]3[C@](C)(C1=O)N2C(=O)c1ccc(C(C)(C)C)cc1,,inactive: -15.1%
CCOC(=O)N1CCN(S(=O)(=O)c2ccc(C(=O)N(CCN(CC)CC)c3nc4ccc(C)cc4s3)cc2)CC1,"inconclusive [inhibitor, full curve, poor fit]",
COc1c(C)cc(Br)cc1C(=O)Nc1cccc(-c2nc3ncccc3o2)c1,active: 20.6 µM,
COc1ccc(C)cc1NC(=O)N1CCN(c2nnc(C)c3c(C)n(-c4ccccc4)nc23)CC1,,inactive: -17.2%
O=C(Cn1c(=O)n(CCCS(=O)(=O)C2CCCCC2)c(=O)c2ccccc21)Nc1ccc(F)c(Cl)c1,,inactive: 0.632%
O=C1C(c2c(O)[nH]c3ccccc23)=Nc2ccccc21,inactive,
Cc1c(NC(=O)COC(=O)CCC(=O)c2ccc(Cl)cc2)c(=O)n(-c2ccccc2)n1C,"inconclusive [inhibitor, single point]",
CCNc1ccc(C(=O)OCC(=O)N2CCCC2)cc1[N+](=O)[O-],"inconclusive [inhibitor, single point]",
CCOc1ccc(-n2c(SCc3cc(=O)oc4cc(C)ccc34)nnc2-c2cccnc2)cc1,"inconclusive [inhibitor, single point]",
COc1ccc(C(=O)OCC(=O)N2C(C)CCCC2C)cc1S(=O)(=O)N1CCOCC1 (configuration not stated),"inconclusive [inhibitor, single point]",
COc1ccc(N2C(=NC(=O)CC3CCCCC3)SC3CS(=O)(=O)CC32)cc1 (configuration not stated),,inactive: 0.764%
CCOc1ccccc1-n1nnnc1SCC(=O)N(C)C1CCS(=O)(=O)C1 (configuration not stated),,inactive: -8.25%
COCCCn1c(Cc2csc(Nc3ccc(F)cc3)n2)nnc1SCC(N)=O,,inactive: -26.4%
Cc1ccc(NC(=O)c2cc3c([nH]c2=O)CC(c2ccccc2)CC3=O)cc1 (configuration not stated),"inconclusive [inhibitor, single point]",
O=C(c1cnc(N2CCCCC2)c2ccccc12)N1CCN(c2cccc(Cl)c2)CC1,active: 16.4 µM,
Nc1ccn([C@@H]2O[C@H](CNC(=O)[C@@H](N)CSCc3ccccc3)[C@@H](O)[C@H]2O)c(=O)n1,,inactive: -16.6%
Nc1nc(CSc2ccc(Cl)cc2)nc(N2CCCCC2)n1,,inactive: -18.7%
Cc1ccc2nc(NC(=O)CSc3nc(=O)n(CCN(C)C)c4c3CCCC4)sc2c1,"inconclusive [inhibitor, single point]",
O=C(CSc1ncnc2sc(-c3ccccc3)cc12)NC1CCS(=O)(=O)C1 (configuration not stated),active: 14.6 µM,
COc1cccc(CNC(=O)C(=O)NCC2CCCN2S(=O)(=O)c2cc(C)ccc2C)c1 (configuration not stated),"inconclusive [inhibitor, single point]",
CCNC(=S)NNC(=O)c1ccoc1C,,inactive: -4.19%
COc1ccc(S(=O)(=O)N2CCC(C(=O)N3CCc4ccccc4C3)CC2)cc1Cl,"inconclusive [inhibitor, single point]",
Cc1c(/C=N\NC(=O)c2cc3ccccc3o2)c2ccccc2n1C,active: 3.66 µM,

SMILES,Potency,"activity change, negative = growth inhibition"
CCCCNc1sc(S(=O)(=O)CCC)nc1S(=O)(=O)c1ccc(C)cc1,active: 20.6 µM,
CCCn1c(/N=C/c2cc(OC)ccc2O)nc2ccccc21,,inconclusive: -37.2% [inhibitor]
COc1ccc(Cl)cc1C1CC(=O)Nc2cc3c(cc21)OCCO3 (configuration not stated),active: 0.366 µM,
CCOc1ccccc1NC(=O)CCc1c(C)nc2c3cccnc3nn2c1C,"inconclusive [inhibitor, single point]",
CCCCCCCNC(=O)C1CC(=O)N(C)C(=Nc2ccc(OC)cc2)S1 (configuration not stated),"inconclusive [inhibitor, single point]",
O=c1c2cc(C(F)(F)F)ccc2sn1-c1ccccc1,active: 5.17 µM,
O=C(Cn1c(SCc2ccccc2F)nc2cccnc21)Nc1ccc(F)c(Cl)c1,"inconclusive [inhibitor, single point]",
CC(C)Cn1cc(C(=O)N2CCC(C)CC2)c2c3ccccc3n(C)c2c1=O,"inconclusive [inhibitor, single point]",
Cn1c(/C(C#N)=C(\O)c2ccc(S(=O)(=O)N3CCCCC3)cc2)nc2ccccc21,"inconclusive [inhibitor, partial curve]",
COc1cc(OC)c(NS(=O)(=O)c2cc(C(=O)NCCCN3CCOCC3)ccc2C)cc1Cl,,inactive: -0.395%
CC(C)c1ccc(NC2CCCN(C(=O)c3ccccc3-c3ncc[nH]3)C2)cc1 (configuration not stated),"inconclusive [inhibitor, single point]",
O=C(CSc1ccc(Cl)cc1)N1N=CCC1c1ccccc1 (configuration not stated),"inconclusive [inhibitor, single point]",
O=C(NCc1ccc(F)cc1)c1ccc(CS(=O)(=O)Cc2ccccc2F)o1,"inconclusive [inhibitor, single point]",
COc1ccc(C(=O)N/N=C2\SCC(=O)N2Cc2ccc3c(c2)OCO3)c(OC)c1,,inconclusive: -30.8% [inhibitor]
Cc1ccccc1NC(=O)CCN1CCc2ccccc2C1,"inconclusive [inhibitor, partial curve, poor fit]",
CCN(Cc1ccccc1)C(=O)Cn1cc(S(=O)(=O)NC)c(S(=O)(=O)NC)c1,,inactive: -10.8%
CC12CN3CC(C)(CN(C1)C3c1ccc(Br)cc1)C2 (configuration not stated),,inactive: -8.25%
CCOc1ccc(S(=O)(=O)N2CCCCC2)cc1NC(=O)c1ccccc1,"inconclusive [inhibitor, single point]",
Cc1ncc(C(O)c2ccccc2)n1Cc1ccccc1 (configuration not stated),active: 23.1 µM,
N#Cc1ccc(Nc2nc(NCc3ccccc3)nc3ccsc23)cc1,active: 1.84 µM,
COC(=O)N/N=C(\CCC(=O)O)c1cccs1,,inactive: 6.17%
CCC(CO)Oc1cc(NC(=O)c2cccc(C)c2)c2ncn(C(C)C)c2c1 (configuration not stated),"inconclusive [inhibitor, single point]",
CN(C)CCNc1ncnc2c1ncn2[C@H]1CN(Cc2ccccc2)C[C@@H](CO)O1,,inactive: -23%
Cc1ccc(CN2C(=O)c3ccccc3Sc3ccc(C(=O)NC4CCCC4)cc32)cc1,"inconclusive [inhibitor, partial curve]",

SMILES,Potency,"activity change, negative = growth inhibition"
CC1CN(C(=O)COC(=O)c2cc(Cl)ccc2[N+](=O)[O-])CC(C)O1 (configuration not stated),,inconclusive: -28.4% [inhibitor]
O=C(c1ccccc1)N1CCN(C(=S)NCCc2ccccc2)CC1,"inconclusive [inhibitor, single point]",
COc1cccc(C(=O)NCCc2csc(-c3cccc(F)c3)n2)c1OC,"inconclusive [inhibitor, single point]",
CC(C)(C)OC(=O)N1CCC(c2c(C(=O)N3CCN(C4CCCCC4)CC3)cnn2-c2ccc(F)cc2)CC1,,inactive: 10%
Cc1cc(C)cc(Nc2c3c(nc4ncnn24)CCC3)c1,"inconclusive [inhibitor, single point]",
CC(C)CC1CCCCC1OC(=O)CN1CCCCC1 (configuration not stated),"inconclusive [inhibitor, single point]",
COc1ccc(NS(=O)(=O)c2cccc(NC(=O)COc3ccc(OC)cc3)c2)cc1,"inconclusive [inhibitor, single point]",
COC(=O)c1sc2nc3c(c(-c4cccs4)c2c1N)CCCC3,"inconclusive [inhibitor, full curve, poor fit]",
CC(=O)C(=Nc1cccc(Cl)c1)NNc1ccccc1C,active: 14.6 µM,
Cc1ccc(C(=O)N2CCc3cc(CNC(=O)CCc4ccccc4)ccc32)cc1,"inconclusive [inhibitor, partial curve]",
CC(CCc1ccccc1)NC(=O)CCNS(=O)(=O)c1ccccc1C(F)(F)F (configuration not stated),"inconclusive [inhibitor, single point]",
Cc1ccc(C)c(N2CCN(C(=O)C3CCN(c4nnc(N5CCCC5=O)s4)CC3)CC2)c1,"inconclusive [inhibitor, single point]",
CCOC(=O)c1c(C)oc2c1c(/C=N/c1ccccn1)c(O)c1ccccc12,"inconclusive [inhibitor, single point]",
Cc1cccc2cc(CN(Cc3cccs3)C3(c4nnnn4C4CCCC4)CCCC3)c(=O)[nH]c12,active: 20.6 µM,
C=CCSc1nnc(NC(=O)C23CC4CC(CC(NC(C)=O)(C4)C2)C3)s1,,inactive: 1.43%
O=C(NC1CC(=O)N(c2ccccc2)C1)c1ccco1 (configuration not stated),,inactive: 2.8%
O=C(NCc1cccnc1)/C(=C\c1ccc(-c2ccc(Br)cc2)o1)S(=O)(=O)c1ccccc1,active: 3.26 µM,
O=C1NC(=O)C(=Cc2ccc(Cl)cc2Cl)S1,"inconclusive [inhibitor, single point]",
CCOC(=O)c1sc(NC(=O)CSc2nccc(C)n2)c(C#N)c1C,,inactive: -10.9%
C[C@H]1CN([C@@H](C)CO)C(=O)CCCn2cc(nn2)CO[C@@H]1CN(C)S(=O)(=O)c1ccc2c(c1)OCCCO2,,inactive: -25.3%
Cc1ccc(C)c(NC(=O)C(OC(=O)c2ccc(NC(=O)CC#N)cc2)c2ccccc2)c1 (configuration not stated),"inconclusive [inhibitor, single point]",
O=C(Nc1ccc(F)cc1)Nc1ccc2snnc2c1,active: 6.51 µM,
Nc1nc(SCc2cccc([N+](=O)[O-])c2)n[nH]1,,inactive: 18.2%
Cn1cccc1C(=O)OCC(=O)NCCc1ccccc1,,inactive: 20.3%
